According to PubChem BioAssay AID360 (National Center for Advancing Translational Sciences (NCATS), 2006):
Out of some 48,000 compounds screened, about 550 (1.1%) were called active. Roughly 4% stayed inconclusive and do not appear here. No stated cut-off is given here; in the data, active means potency below about 15 µM; inconclusive means mostly about 16 µM to 33 µM; inactive means weaker than that. The list shows a part of the results.

The compounds below were run against Lysosomal acid glucosylceramidase (Homo sapiens) (UniProt P04062) (assay: Glucocerebrosidase). Settings: purified enzyme, resorufin glucoside fluorescence (screen aimed at inhibitors), 20 min.
Chain of UniProt P04062 (P04062 whole entry, looked up): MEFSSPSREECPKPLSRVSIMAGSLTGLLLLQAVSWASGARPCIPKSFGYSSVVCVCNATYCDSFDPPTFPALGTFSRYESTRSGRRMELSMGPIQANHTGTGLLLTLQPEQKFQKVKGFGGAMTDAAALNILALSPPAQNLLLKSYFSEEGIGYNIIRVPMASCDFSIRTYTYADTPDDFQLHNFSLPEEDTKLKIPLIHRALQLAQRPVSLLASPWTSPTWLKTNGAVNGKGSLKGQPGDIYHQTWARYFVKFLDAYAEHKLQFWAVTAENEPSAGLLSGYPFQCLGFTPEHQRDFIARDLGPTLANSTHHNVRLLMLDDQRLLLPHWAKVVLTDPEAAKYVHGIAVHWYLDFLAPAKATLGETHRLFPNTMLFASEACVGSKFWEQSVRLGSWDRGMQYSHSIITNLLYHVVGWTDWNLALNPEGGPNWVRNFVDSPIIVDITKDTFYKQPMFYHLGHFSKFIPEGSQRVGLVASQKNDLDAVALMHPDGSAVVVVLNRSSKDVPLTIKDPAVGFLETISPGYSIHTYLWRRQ
Summary of the method: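 Normal human glucocerebrosidase (0.2 nM final) was assayed with resorufin β-D-glucopyranoside (30 uM final) in 50mM citric acid/KH2PO4, 10mM sodium taurocholate, 0.01% tween-20, pH 5.9. Compounds were titrated; fluorescence (Ex 548, Em 600) read after 20 min at RT.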
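Further: the screen sought inhibitors.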
Potency means the concentration at half of the fitted maximal effect.

| Compound | Potency |
| --- | --- |
| Cn1cnnc1SCC(=O)Nc1ccccc1Sc1ccccc1 | inactive: > 76.9 µM |
| Cc1nn(-c2ccccc2)c2c1/C(=N/O)CC(C)(C)C2 | inactive: > 76.9 µM |
| Nn1c(SCC(=O)Nc2ccc(F)cc2F)nnc1-c1cccnc1 | inactive: > 76.9 µM |
| CC(C)N(Cc1nc(-c2ccccc2)no1)C(=O)c1ccc2c(c1)OCO2 | inactive: > 76.9 µM |
| Cc1ccc(C(=O)O)cc1S(=O)(=O)N1CCC(C(=O)O)CC1 | inactive: > 76.9 µM |
| O=C1c2ccccc2C(=O)N1c1ccccc1S(=O)C(F)(F)F (stereo not drawn) | inactive: > 76.9 µM |
| Cc1ccc(N2C(=O)c3ccc(N)cc3C2=O)cc1 | inactive: > 76.9 µM |
| O=C(CN1CCN(c2ccccn2)CC1)NC(=O)NC1CCCCC1 | inactive: > 76.9 µM |
| O=C(C1CCN(S(=O)(=O)c2cnc[nH]2)CC1)N1CCc2ccccc2C1 | inactive: > 76.9 µM |
| CC1=C(C(=O)OCCOC(C)C)C(c2cc3c(cc2Br)OCO3)C2=C(CCCC2=O)N1 (stereo not drawn) | active: 11 µM |
| Cc1cc(C)cc(OCC(=O)NCCN2CCOCC2)c1 | inactive: > 76.9 µM |
| CCCc1c(C)c2ccc(OCC(C)=O)cc2oc1=O | inactive: > 76.9 µM |
| COc1ccc(CC(=O)NCc2ccccc2)cc1S(=O)(=O)N1CCOCC1 | inactive: > 76.9 µM |
| COC(=O)CC1C(=O)NCCN1C(=O)c1ccccc1 (stereo not drawn) | inactive: > 76.9 µM |
| Cc1c(C)[n+](=O)c2c(n1[O-])CCCCC2 | inactive: > 76.9 µM |
| CCCc1nn(C)c2c1C(c1ccncc1)C(C#N)=C(N)O2 (stereo not drawn) | inactive: > 76.9 µM |
| CS(=O)(=O)N1CCN(C2CCN(Cc3ccccc3)CC2)CC1 | inactive: > 76.9 µM |
| Cc1nc2nc(CSc3nc4ccccc4s3)cc(=O)n2[nH]1 | inactive: > 76.9 µM |
| CC1(C)Cc2ccccc2-c2nnc(SCC(=O)N3CCN(c4ccccc4)CC3)n21 | inactive: > 76.9 µM |
| O=c1cnc2ccccc2n1CC1CCCCC1 | inactive: > 76.9 µM |
| COc1cccc(C=Nc2cc(C)on2)c1O | inactive: > 76.9 µM |
| COc1ccc(-c2ccc(=O)[nH]n2)cc1 | inactive: > 76.9 µM |
| Cc1ccc(Nc2nc(CSc3nnnn3-c3ccccc3)cc(=O)[nH]2)cc1 | inactive: > 76.9 µM |
| O=C1c2ccccc2C(=O)N1CCSc1nncs1 | inactive: > 76.9 µM |

| Compound | Potency |
| --- | --- |
| O=C1CC(c2ccco2)c2ccc3ccccc3c2N1 (stereo not drawn) | inactive: > 76.9 µM |
| COc1ccc2[nH]c(=O)c(CN(Cc3cccnc3)C(=O)Nc3ccccc3)cc2c1 | inactive: > 76.9 µM |
| O=C1c2ccccc2C(=O)N1CCCOc1ccccc1 | inactive: > 76.9 µM |
| CC(CCc1ccco1)NC(=O)Nc1cccc(F)c1 (stereo not drawn) | inactive: > 76.9 µM |
| COc1cc(CC(=O)OCC(=O)Nc2ncc(Cl)cc2Cl)cc(OC)c1OC | inactive: > 76.9 µM |
| CS(=O)(=O)N1CCC(C(=O)NCC2CCCO2)CC1 (stereo not drawn) | inactive: > 76.9 µM |
| CCn1c(=O)n(CCOC)c(=O)c2c3c(sc21)CCCC3 | inactive: > 76.9 µM |
| Cn1cccc1Cc1nnc(SCC(=O)NCc2ccco2)n1CCc1ccccc1 | inactive: > 76.9 µM |
| CCOC(=O)C1CCN(C(=O)CNS(=O)(=O)c2ccc(Br)s2)CC1 | inactive: > 76.9 µM |
| COC(=O)c1ccccc1NC(=O)c1cc(-c2cccs2)on1 | inactive: > 76.9 µM |
| Cc1cncn1CCc1nc2c3ccccc3nc(=S)n2[nH]1 | inactive: > 76.9 µM |
| O=C(NCc1ccco1)Nc1ccc(Br)cc1Cl | inactive: > 76.9 µM |
| CC(=O)c1ccc(NC(=O)C2CC(c3ccc(F)cc3)=NO2)cc1 (stereo not drawn) | inactive: > 76.9 µM |
| CCOC(=O)C(C(C)=O)=C1SC2CS(=O)(=O)CC2S1 (stereo not drawn) | inactive: > 76.9 µM |
| COc1cccc(C(=O)N(CN2CCCC2=O)c2cccc(Cl)c2)c1 | inactive: > 76.9 µM |
| COc1cccc(-c2noc(C3CCCN(C(=O)Cc4ccccc4)C3)n2)c1 (stereo not drawn) | inactive: > 76.9 µM |
| COc1ccccc1N1CC(O)=C(c2nc3ccccc3s2)C1=N | inactive: > 76.9 µM |
| COc1ccc(C2(C(=O)NC(C)C)CCCC2)cc1OC | inactive: > 76.9 µM |
| CSc1nc2ccccc2n1C(=O)NC1CCCCC1 | inactive: > 76.9 µM |
| Nc1c(C(=O)NC2CCCCC2)c2nc3ccccc3nc2n1/N=C/c1ccco1 | inactive: > 76.9 µM |
| COc1ccccc1-n1c(=O)oc2ccc(Cl)cc2c1=O | inactive: > 76.9 µM |
| CS(=O)(=O)Nc1ccc2c(c1)nc1n2CCOC1 | inactive: > 76.9 µM |
| O=C(c1ccc2c(c1)[nH]c(=S)n1c3ccccc3nc21)N1CCN(c2ncccn2)CC1 | inactive: > 76.9 µM |
| CCOC(=O)c1c(NC(=O)CSc2nnc(-c3ccccc3C)n2C)sc(C(C)=O)c1C | inactive: > 76.9 µM |

| Compound | Potency |
| --- | --- |
| C=C(C)c1cccc(C(C)(C)NC(=O)N2CCN(C)CC2)c1 | inactive: > 76.9 µM |
| O=C(OCc1cc2ccccc2[nH]c1=O)C1CCCO1 (stereo not drawn) | inactive: > 76.9 µM |
| CN(C(=O)COC(=O)COc1ccccc1F)C1CCS(=O)(=O)C1 (stereo not drawn) | inactive: > 76.9 µM |
| CCCCCNC(CC(=O)Nc1ccc(OC)cc1)C(=O)O (stereo not drawn) | inactive: > 76.9 µM |
| Cc1ccc(NC(=O)Cn2cccc2)cc1Cl | inactive |
| CN(C)C(=O)Cn1c(SCC(=O)NC2CCCCC2)nc2ccccc21 | inactive: > 76.9 µM |
| CCCCCn1c(=S)[nH]c2ncccc2c1=O | inactive: > 76.9 µM |
| Cc1ccc2cc(-c3noc(C(C)(C)C)n3)c(=O)[nH]c2c1 | inactive: > 76.9 µM |
| CCS(=O)(=O)N1CCC(C(=O)NCCCN2CCCCCC2)CC1 | inactive: > 76.9 µM |
| CC(=O)Oc1cccc(N2C(=O)CC(Nc3ccc(N4CCOCC4)cc3)C2=O)c1 (stereo not drawn) | inactive: > 76.9 µM |
| CCOC(=O)c1sc(NC(=O)CSc2nc3c(cc2C#N)CCC3)c(C#N)c1C | inactive: > 76.9 µM |
| Cc1ccc(C)c(N(C(=O)Cn2nnc3ccccc32)C(C(=O)NCc2ccco2)c2ccncc2)c1 (stereo not drawn) | inactive: > 76.9 µM |
| Cc1ccc(CS(=O)(=O)CCC(=O)NCCCN2CCCC2)cc1 | inactive: > 76.9 µM |
| Cc1c(F)cccc1NC(=O)CCC(=O)O | inactive: > 76.9 µM |
| Cc1ccc(CNC(=O)COC(=O)c2c(C)noc2C)cc1 | inactive: > 76.9 µM |
| CN(Cc1ccccc1)c1nc2c(c(=O)[nH]c(=O)n2C)n1Cc1ccccc1Cl | inactive: > 76.9 µM |
| CCc1cc2ccccc2nc1SCC(=O)N1CCN(C(=O)c2ccco2)CC1 | inactive: > 76.9 µM |
| CC1CCCC(NS(=O)(=O)c2ccc3c(c2)OCCO3)C1C (stereo not drawn) | inactive |
| O=C(c1ccc2c(c1)OCCO2)C1CCN(S(=O)(=O)c2ccc(F)cc2)CC1 | inactive: > 76.9 µM |
| O=C(Nc1nccs1)c1ccc(COc2ccccc2Br)o1 | inactive: > 76.9 µM |
| S=C1SCN(CCN2CCOCC2)CN1Cc1ccccc1 | inactive: > 76.9 µM |
| CC1(C)CC(=O)C2=C(C1)N(Cc1ccco1)C(=O)C2(NC(=O)C1CCCCC1)C(F)(F)F (stereo not drawn) | inactive: > 76.9 µM |
| Cc1nc(SCc2nnc(-c3ccc(Cl)cc3)o2)c2c3c(sc2n1)CCC3 | inactive: > 76.9 µM |
| COc1ccc(OCc2nnc(SCC(=O)O)n2N)cc1 | inactive: > 76.9 µM |

| Compound | Potency |
| --- | --- |
| N#CC1=C(N)Oc2n[nH]c(-c3ccncc3)c2C1c1ccsc1 (stereo not drawn) | inactive: > 76.9 µM |
| Cc1ccc(NC(=O)CSc2nnc(C3CCCCC3)n2N)cc1F | inactive: > 76.9 µM |
| C=CCN=C1SCC(=O)N1S(=O)(=O)c1ccccc1 | inactive: > 76.9 µM |
| CCCn1c(SCC(=O)N2CCCCC2)nnc1-c1ccco1 | inactive: > 76.9 µM |
| CCOC(=O)c1cnn(-c2nc3sc4c(c3c(=O)[nH]2)CCCC4)c1N | inactive: > 76.9 µM |
| O=C(NC12CC3CC(CC(C3)C1)C2)C1CCCN1C(=O)NC1CCCCC1 (stereo not drawn) | inactive: > 76.9 µM |
| COc1ccc2c(CC(=O)N(C)CC3COc4ccccc4O3)coc2c1 (stereo not drawn) | inactive: > 76.9 µM |
| Cc1ccc(-n2c(CNc3ccc(F)cc3)nnc2SCC(=O)N2CCCC2)cc1 | inactive: > 76.9 µM |
| O=C(NCCc1ccccc1)C1CC(c2ccccc2O)=NO1 (stereo not drawn) | inactive: > 76.9 µM |
| COc1ccc(NC(=O)c2ccc3c(c2)C(=O)N(Cc2cccnc2)C3=O)cc1 | inactive: > 76.9 µM |
| CC(=O)N1CCc2cc(Br)cc(S(=O)(=O)NCc3ccccn3)c21 | inactive: > 76.9 µM |
| COc1ccc(-n2ncc3c(N4CCCc5ccccc54)ncnc32)cc1 | inactive: > 76.9 µM |
| O=C1/C(=N/n2cnnc2)c2ccccc2N1Cc1ccccc1 | inactive: > 76.9 µM |
| COc1ccccc1CN1CCN(C(CC(C)C)c2nnnn2Cc2cccs2)CC1 (stereo not drawn) | inactive: > 76.9 µM |
| CCN(CCCNC(=O)C1CCN(S(=O)(=O)CC)CC1)c1cccc(C)c1 | inactive: > 76.9 µM |
| CC(NC(=O)Nc1ccccc1O)(C(F)(F)F)C(F)(F)F | inactive: > 76.9 µM |
| COC(=O)c1cc(OC)c(OC)cc1NC(=O)c1cnccn1 | inactive: > 76.9 µM |
| CCn1c(SCC(=O)Nc2cc(C)on2)nc2c1c(=O)n(C)c(=O)n2C | inactive: > 76.9 µM |
| Cc1cc(C)nc(N(C#N)S(=O)(=O)c2ccccc2)n1 | inactive: > 76.9 µM |
| O=C(C1CCN(C2CC(=O)N(c3ccc(Cl)cc3)C2=O)CC1)N1CCOCC1 (stereo not drawn) | inactive: > 76.9 µM |
| Cc1nn(Cc2ccccc2)c(Cl)c1C(=O)OC1CCOC1=O (stereo not drawn) | inactive: > 76.9 µM |
